# “And” between values parts separate entries of the source, which are not always exact repeats. Identical values can stand only once. The campaign covered roughly 50,000 compounds. About 800 (1.6%) showed an effect of 50% or more. The list shows a part of the results.
# Target: Bcl-2-like protein 10 (Homo sapiens) (UniProt Q9HD36)
# Assay: TR3 peptide-Bcl-B binding displacers, biochemical primary FP assay, phenotype converters (AID 1240);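 note: 0% = Bcl-B with tracer peptide and DMSO and 100% = tracer peptide lacking Bcl-B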
# Details: GST-Bcl-B / FITC-TR3 peptide fluorescence polarization; stronger effect = higher value; compound at 3.75 mg/L
# UniProt Q9HD36, sequence (Q9HD36 whole entry, looked up): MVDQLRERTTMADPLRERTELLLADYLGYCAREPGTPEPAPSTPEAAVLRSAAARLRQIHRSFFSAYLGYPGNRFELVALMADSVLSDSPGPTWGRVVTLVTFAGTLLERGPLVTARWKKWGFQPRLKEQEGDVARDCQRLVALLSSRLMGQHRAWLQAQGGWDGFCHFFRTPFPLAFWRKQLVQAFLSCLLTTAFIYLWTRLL
row,Compound,displacement
1,CC(=O)Nc1ccc(Nc2nc(-c3ccc(Br)cc3)cs2)cc1,14.5%
2,CN(C)C=Nc1c(C(=O)NCc2ccccc2)c2n(c1C#N)CCC2,-12.5%
3,CN(C)/C=C/C=C1C(=O)OC(C)(C)OC1=O,0.3%
4,Cc1ccc(N2C(=O)C3C(C2=O)C3(c2ccccc2)c2ccccc2)c(C)c1 (configuration not stated),-13.6%
5,COc1ccc(C2OCC3(CO)C(C)C=C(C)C2C3C)cc1 (configuration not stated),-2.4%
6,O=C(c1ccc(Br)cc1)N(Cc1ccccc1)c1cccc([N+](=O)[O-])c1,-11.1%
7,CCN1/C(=C/C(C)=O)Sc2ccccc21,19.9%
8,O=c1/c(=C/c2cccc([N+](=O)[O-])c2)sc2nc3cc(Br)cnc3n12,-2.3%
9,COc1ccc(-n2c(NNC(C)=O)nc3sc4c(c3c2=O)CCCC4)cc1,1.1%
10,CC(C(=O)O)N1C(=O)/C(=C\c2ccc(F)cc2)SC1=S (configuration not stated),8.1%
11,COc1cc(/C=C2/SC(=S)N(CC(=O)O)C2=O)ccc1OC(=O)c1cccc(C)c1,14.9%
12,CCOc1ccc(N(CC(=O)Nc2ccccc2Br)S(C)(=O)=O)cc1,-0.1%
13,CCCOc1ccc(C(=O)Nc2cc(Cl)cc(Cl)c2)cc1,9.6%
14,Cc1cc(C)n(-c2cc(-c3ccccc3)nc(-c3ccccc3)n2)n1,5.8%
15,CSc1nnc2c(n1)OC1(CCCCC1)Nc1ccccc1-2,3.1%
16,CN1CCc2c(sc3c2C(=O)NC(c2ccc4ccccc4c2)N3)C1 (configuration not stated),83%
17,CCOc1ccc(N2C(=O)NC(=O)/C(=C/c3ccc(-c4ccccc4[N+](=O)[O-])o3)C2=O)cc1,3.8%
18,N#C/C(=C/c1ccc(-c2ccc(S(N)(=O)=O)cc2)o1)C(=O)Nc1ccccc1,-0.4%
19,COc1ccc(C2/C(=C(\O)c3ccccc3)C(=O)C(=O)N2c2cccc(C)n2)cc1 (configuration not stated),10.4%
20,CN(Cc1ccccc1)C(=O)c1cc2nc(-c3ccc(Cl)cc3)cc(C(F)(F)F)n2n1,-8.1%
21,COc1ccc(N(CC(=O)Nc2ccccc2Br)S(C)(=O)=O)c(OC)c1,-1.2%
22,O=C(Nc1sc2c(c1C(=O)N1CCCCC1)CCCCC2)c1ccncc1,13.5%

row,Compound,displacement
1,COc1ccc(CSc2nc3sc4c(c3c(=O)n2Cc2ccccc2)CC(C)(C)OC4)cc1,-6.8%
2,Cc1ccc2c(c1)NC(c1ccc3c(c1)OCO3)C1=C(CC(c3ccccc3)CC1=O)N2 (configuration not stated),-6%
3,COc1ccc(Br)cc1C(=O)N1CCN(c2ccc([N+](=O)[O-])cc2Cl)CC1,5%
4,CCOc1ccc(N/C(C)=C/C(=S)Nc2ccccc2)cc1,-14.7%
5,COc1ccccc1OCCCN1CCCC1,4.2%
6,CC1(C)CC(=O)c2sc(NC(=O)c3ccccc3Cl)nc2C1,-12.5%
7,COc1ccc(CCN2C(=O)CC(C(=O)O)SC2=Nc2cccc(C(F)(F)F)c2)cc1OC (configuration not stated),-8.3%
8,CCOc1ccc(NC2OC(=O)c3c2ccc(OC)c3OC)cc1 (configuration not stated),6.5%
9,CC(=O)NC(c1ccc(C)cc1)c1c(OC(C)=O)ccc2ccccc12 (configuration not stated),5.2%
10,O=C(NCCOc1cccc2ccccc12)Nc1cccc2ccccc12,-15.1%
11,COc1ccc(C2/C(=C(/O)c3ccccc3)C(=O)C(=O)N2c2cccc(OC)c2)cc1 (configuration not stated),4.1%
12,CC(C)c1ccccc1OCC(=O)Nc1cccc(C(F)(F)F)c1,13.1%
13,CC1=C(C(=O)OCCOc2ccccc2)C(c2ccc(C(C)C)cc2)C2=C(CCCC2=O)N1 (configuration not stated),-0.4%
14,COc1ccc(OC)c(N2C(=O)NC(=O)C(=Cc3ccc(C)o3)C2=O)c1,12.2%
15,O=C(Nc1cccc(Cl)c1)N1CCN(C/C=C/c2ccccc2)CC1,-2.9%
16,COC(=O)c1c(NC(=S)Nc2ccccc2)sc(Cc2ccccc2)c1C,29.5%
17,COC(=O)/C(=C/C(=O)c1ccc(C)cc1)Nc1c(C)n(C)n(-c2ccccc2)c1=O,-5%
18,CC(=O)c1cc(CN2C(=O)c3ccccc3C2=O)cs1,-8.8%
19,Cc1cc(C)cc(N2C(=O)NC(=O)/C(=C\c3c(F)cccc3Cl)C2=O)c1,-7.7%
20,Cc1ccc(/C=N/Nc2nn[nH]n2)c2nsnc12,-5.4%
21,COc1ccc(C(=O)CSc2ncn(-c3ccccc3)n2)cc1,14.1%
22,O=C(Nc1cc(-c2nc3ccccc3s2)ccc1Cl)c1ccc([N+](=O)[O-])cc1,90.8%

row,Compound,displacement
1,COc1ccc(/C=N/Nc2nncc(=O)[nH]2)cc1OC,-2.1%
2,CN(N)c1nc(N2CCCCC2)nc(N2CCCCC2)n1,3.6%
3,CC1(C)NC(=S)N(c2ccccc2)N1,-3%
4,COc1ccccc1/C=C1\SC(=S)N(CCC(=O)OCCN(C)C)C1=O,11.8%
5,C=CCn1c(=N)n(CC(O)C(C)(C)C)c2ccccc21 (configuration not stated),-4.7%
6,COc1ccc(C(=O)CSc2nnc(-c3ccco3)n2-c2ccccc2)cc1,-7.3%
7,CCOc1cc(C(=O)Nc2ccc(F)cc2)cc(OCC)c1OCC,11.9%
8,Cc1cccc([N+](=O)[O-])c1N=Cc1ccc(N(C)C)cc1,-4.5%
9,CCc1nnc(NS(=O)(=O)c2ccc(NS(=O)(=O)c3ccc4c(c3)C(=O)c3ccccc3-4)cc2)s1,14.7%
10,COc1ccc(C(=O)O)cc1NC(=O)CC(=O)c1ccc([N+](=O)[O-])cc1,-15%
11,Oc1ccc(/C=N/Nc2nc(N3CCOCC3)nc(N3CCOCC3)n2)c(O)c1,13%
12,Cc1ccc(N/N=C/c2c(C)[nH]n(-c3ccc(C)c(C)c3)c2=O)c(C)c1,1.2%
13,COc1ccc([N+](=O)[O-])cc1/C=C1/SC(=S)N(CC(=O)O)C1=O,9.4%
14,O=C1c2ccccc2C(=O)C12OC(c1ccc(Br)cc1)C1(C(=O)c3ccccc3C1=O)C2c1ccc(F)cc1 (configuration not stated),2.6%
15,Cc1ccc(-n2c(SCC(=O)Nc3ccccc3)nc(O)c(Cc3ccccc3)c2=O)cc1,-6%
16,COCCOC(=O)c1ccc(NC(=O)COc2cccc(C)c2)cc1,-7.7%
17,Cc1ccc(Cl)cc1NC(=O)c1cc(Cl)ccc1Cl,-0.8%
18,Cc1cc(-c2nc3ccccc3[nH]2)c2ccccc2n1,-8% and 12.7%
19,O=C(/C=C/c1ccccc1Cl)n1cnc2ccccc21,2.8%
20,Cc1ccc(C(=O)c2ccc(Br)cc2)cc1S(N)(=O)=O,13%
21,O=c1c(-c2ccc(Cl)cc2Cl)coc2c(CN3CCCCCC3)c(O)ccc12,-6.1%
22,O=C(N(c1cccc(C(F)(F)F)c1)C1C=CS(=O)(=O)C1)C(F)(F)F (configuration not stated),14.6%

row,Compound,displacement
1,Cc1ccc(N2C(=O)/C(=C/c3ccc(OCc4cccc(C(=O)O)c4)cc3)C(=O)NC2=S)cc1,11.7%
2,Cc1ccc(C(=O)CSc2nc(N)c(C#N)c(-c3ccc(O)cc3)c2C#N)cc1,2.3%
3,COc1ccc(OC)c(NC(=O)c2ccc(Cl)c(Cl)c2)c1,2.1%
4,COc1ccc(C(=O)OCCNC(=O)c2ccc[n+](C)c2)cc1OC,10%
5,Cc1nnc(C)n1/N=C\c1cccc(Br)c1,30.3%
6,Cc1nc2cc(NC(=O)c3ccccc3)ccc2n1C,-8.3%
7,CCC(=O)c1ccc(OC(=O)c2ccc(Br)cc2)cc1,-0.1%
8,COC(=O)C1=C(C)NC(C)=C(C(=O)OC)C1c1cn(-c2ccccc2)nc1-c1ccco1,8.3%
9,CCOc1ccc(S(=O)(=O)N=Nc2c(O)[nH]c3ccccc23)c2ccccc12,-5.4%
10,N/C(Cc1cccc2ccccc12)=N\OC(=O)c1ccc(F)cc1,31.7%
11,Oc1c(/C=N/c2ncn[nH]2)ccc2ccccc12,-4.7%
12,CC(=O)Oc1cccc(C(=O)Nc2cc(C)on2)c1,-15.4%
13,O=C1/C(=C/c2ccccc2Cl)SC(=S)N1c1ccc(O)cc1,7.4%
14,COc1cccc(/C=N/N2CCN(Cc3ccccc3Cl)CC2)c1,11.7%
15,CCn1c2ccccc2c2cc(CN3CCNCC3)ccc21,7.5%
16,COc1ccc2nc(NC(=O)NC34CC5CC(CC(C5)C3)C4)sc2c1,12.3%
17,O=C(Nc1cccc(C(F)(F)F)c1)Nc1ccc(Cl)c(Cl)c1,0.5%
18,Cc1nc(-c2ccccc2)sc1C(=O)Nc1ccc2c3c(cccc13)CC2,7.9%
19,CC(NC(=O)c1cc2nc(-c3ccco3)cc(C(F)(F)F)n2n1)C1CC2CCC1C2 (configuration not stated),9.8%
20,O=C(N/N=C/c1cccs1)C(=O)Nc1ccc(Br)cc1,10.3%
21,COc1ccccc1NC(=O)CC1S/C(=N\N=C\c2ccccc2)NC1=O (configuration not stated),0.9%
22,COc1cc(NC(=O)COc2cc(C)c(Cl)c(C)c2)c(OC)cc1Cl,4.8%

row,Compound,displacement
1,CCOc1ccc2ccc(OCC)c(/C=c3\sc4nc5ccccc5n4c3=O)c2c1,-3.2%
2,O=C1NC(=S)N(c2cccc(Br)c2)C(=O)/C1=C/c1ccc(-c2cccc([N+](=O)[O-])c2)o1,10.8%
3,CCOC(=O)c1c(NC(=O)c2cc(Cl)ccc2[N+](=O)[O-])sc2c1CCCC2,-13.5%
4,COc1ccccc1Nc1ncnc2ccc(Br)cc12,-4.4%
5,Cc1ccc(OCC(=O)NNC(=O)c2ccccc2C)c(C)c1,3.8%
6,CCOC(=O)C1CCN(C(=O)c2ccc(I)cc2)CC1,13.3%
7,CCOC(=O)C(=CNCC(=O)O)C(=O)OCC,-10.7%
8,COCCCN1C(=O)C(=Cc2c(NCC3CCCO3)nc3ccccn3c2=O)SC1=S (configuration not stated),-0.2%
9,O=C(O)c1cccc(N(CCO)CCO)c1,6%
10,O=S1(=O)N=C(N/N=C/c2ccccc2O)c2ccccc21,-2.1%
11,CCC1CCc2c(sc3nc(SCC(=O)NCc4ccccc4)n(-c4ccccc4)c(=O)c23)C1 (configuration not stated),-65.4%
12,O=C1C(=O)N(c2cccc([N+](=O)[O-])c2)C(c2ccccc2Cl)/C1=C(/O)c1ccccc1 (configuration not stated),2.1%
13,Cc1ccc(N2C(=O)NC(=O)/C(=C\c3ccc(OCC(=O)O)c(Br)c3)C2=O)cc1,-12.7%
14,COc1ccc(C(=O)Nc2ccc3oc(-c4ccc(N(C)C)cc4)nc3c2)cc1,3.1%
15,O=C(CCC1CCCCC1)Nc1ccc([N+](=O)[O-])cn1,-4%
16,CCc1ccc(N2CC(C(=O)Nc3ccc(Br)cc3)CC2=O)cc1 (configuration not stated),13.1%
17,COc1ccc(S(=O)(=O)Nc2ccccc2Br)cc1,-7.9%
18,O=C1C=C(NCc2ccc(Cl)c(Cl)c2)C2(CCCCC2)O1,6.6%
19,Cc1cnc(NC(=O)c2ccc([N+](=O)[O-])cc2)s1,-15%
